Source: PubChem BioAssay AID540317 (National Center for Advancing Translational Sciences (NCATS), 2011)
Screen size: about 390,000 compounds; about 2,200 (0.56%) were called active. The shares of active, inactive and inconclusive entries below differ from those in the screen. Calls follow the shape of the dose curve; as a rule, active = well fitted inhibition curve with a large enough effect; inconclusive = small, poorly fitted or top-dose-only effect; inactive = no such curve, though single readings can be large or run the other way. Potencies of inconclusive entries are doubtful fits and often do not repeat.

biological target: Chromobox protein homolog 1 (Homo sapiens) (UniProt P83916); test: HTS for Inhibitors of HP1-beta Chromodomain Interactions with Methylated Histone Tails; conditions: AlphaScreen HP1-beta / biotin-H3K9me3 peptide binding; series mostly up to 114 µM; activity change, negative = inhibition: at the top concentration; also: nearly all actives have a fitted effect of over 70% in size
Sequence of UniProt P83916 (P83916 whole entry, looked up): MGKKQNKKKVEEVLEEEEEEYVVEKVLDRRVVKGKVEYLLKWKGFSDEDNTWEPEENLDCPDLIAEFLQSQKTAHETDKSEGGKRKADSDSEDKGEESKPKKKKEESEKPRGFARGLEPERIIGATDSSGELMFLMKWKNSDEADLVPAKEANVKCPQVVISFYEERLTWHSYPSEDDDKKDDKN
Method in brief: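 HP1-beta protein (50 nM final) preincubated 30 min at room temperature with biotinylated H3(1-18)K9me3 peptide (50 nM) in PBS pH 7.4, 0.01% Tween-20, then compound added for 30 min. AlphaScreen streptavidin donor/nickel chelate acceptor beads (10 ug/mL final), 30 min dark, luminescence read.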
Potency is read from the fitted curve at half-maximal effect; tags tell the direction and shape of the fitted curve.

| Structure (SMILES) | Potency | activity change, negative = inhibition |
| --- | --- | --- |
| S=c1[nH]nc(-c2cc(-c3ccco3)[nH]n2)n1-c1cccc2ccccc12 | inconclusive: 17.8 µM [inhibitor, full curve, poor fit] |  |
| Cc1ccccc1C(=O)NNC(=O)c1cccn1C |  | inactive: -5.64% |
| N#CCCN(C(=S)NC(=O)c1cccs1)c1ccccc1F | inconclusive: 15.8 µM [inhibitor, full curve] |  |
| N#Cc1c(NC(=O)CCC(=O)O)sc2c1CCCCC2 | inconclusive: 39.8 µM [inhibitor, partial curve] |  |
| S=C(NNC(=S)NC1CC2C=CC1C2)NC1CC2C=CC1C2 (centres undefined) | inconclusive: 8.91 µM [inhibitor, partial curve, poor fit] |  |
| CCOc1ccc(C(C)=O)cc1N1C(=O)C2C3C=CC(C3)C2C1=O (centres undefined) | inconclusive: 89.1 µM [inhibitor, single point] |  |
| c1coc(C2=Nc3cccc4cccc(c34)N2)c1 | inconclusive: 39.8 µM [inhibitor, partial curve] |  |
| Cn1c(N)c(C(=O)COC(=O)c2cc(-c3ccco3)nc3ccccc23)c(=O)n(C)c1=O | inconclusive: 22.4 µM [inhibitor, full curve] |  |
| Cc1ccc(C(C(=O)NCc2ccc(F)cc2)N(Cc2ccco2)C(=O)c2snc(C(N)=O)c2N)o1 (centres undefined) | inconclusive: 79.4 µM [inhibitor, partial curve, poor fit] |  |
| COc1ccc(-c2nn(-c3ccccc3)cc2/C=C/C(=O)O)cc1[N+](=O)[O-] |  | inactive: 7.25% [at 57 µM] |
| Oc1ccc(Cl)cc1Nc1nc(NCC2CCCO2)c2ccccc2n1 (centres undefined) |  | inactive: 25.1% |
| O=C1C2C3C=CC(C3)C2C(=O)N1c1ncn[nH]1 (centres undefined) | inconclusive: 70.8 µM [inhibitor, partial curve, poor fit] |  |
| Cc1nc(NN)c2c3c(sc2n1)COC(C)(C)C3 |  | inactive: 7.72% |
| CCn1cc(S(=O)(=O)Nc2cc(C)ccc2F)cn1 |  | inactive: 38.7% |
| CCN(CC)c1ccc(CNC(=O)C/C(C)=N/NC(=O)COc2ccc(C)cc2Br)cc1 | inconclusive: 44.7 µM [inhibitor, partial curve] |  |
| Cc1[nH]c(=O)c(Cc2ccccc2)c(O)c1C#N |  | inactive: 5.34% |
| O=C(CCC1CCCC1)N1CCC(N2CCN(c3ccccc3)CC2)CC1 | inconclusive: 56.2 µM [inhibitor, partial curve] |  |
| CCOC(=O)C1(CC2CCCCO2)CCN(C(=O)Nc2ccc(SC)cc2)CC1 (centres undefined) |  | inactive: 17.5% |
| O=C(Nc1ccc(N2CCCC2)c(Cl)c1)c1ccc2c(c1)OCCO2 | inconclusive: 50.1 µM [inhibitor, partial curve] |  |
| COC(=O)c1ccc(=O)n(CC(=O)c2ccc(Cl)cc2)c1 | inconclusive: 89.1 µM [inhibitor, single point] |  |
| O=C(CSc1ccc(Cl)cc1)N1CCN(c2ccc(Cl)cc2[N+](=O)[O-])CC1 | inconclusive: 20 µM [inhibitor, partial curve, poor fit] |  |
| COc1ccc(C2CC(=O)N3CN(C4CCCCC4)CSC3=C2C#N)c(OC)c1 (centres undefined) | inconclusive: 20 µM [inhibitor, full curve] |  |
| CC(=C/C(=O)O)/C=C/c1ccc(Cl)o1 | active: 70.8 µM |  |

| Structure (SMILES) | Potency | activity change, negative = inhibition |
| --- | --- | --- |
| Cc1ccc(NC(=O)c2ccc(C(C)(C)C)cc2)cc1[N+](=O)[O-] | inconclusive: 11.2 µM [inhibitor, full curve, poor fit] |  |
| O=C(NN=C1CCCC1)c1cc(O)cc(O)c1 | inconclusive: 70.8 µM [inhibitor, single point] |  |
| Cc1[nH]c(=O)[nH]c(=O)c1S(=O)(=O)N1CCCC(C(=O)NCCc2ccccc2)C1 (centres undefined) |  | inactive: 19.6% |
| Oc1c(C(c2ccccn2)N2CCOCC2)ccc2cccnc12 (centres undefined) | inconclusive: 20 µM [inhibitor, partial curve, poor fit] |  |
| COc1cc(/C=N/NC(=O)CC2(C)OCCCO2)ccc1OCc1ccc(Cl)cc1Cl | inconclusive: 79.4 µM [inhibitor, single point] |  |
| COc1ccc(NC(=S)NC2CCCCCC2)c(OC)c1 | inconclusive: 22.4 µM [inhibitor, single point] |  |
| COC(=O)c1c(C)oc2ccc(N(C(=O)c3ccncc3)S(=O)(=O)c3ccc(OC)cc3)cc12 |  | inactive: 10.2% |
| COCCn1nnnc1C(c1ccc(O)c(OC)c1)N1CCc2ccccc2C1 (centres undefined) | inconclusive: 70.8 µM [inhibitor, single point] |  |
| O=C(/C=C/c1ccc2c(c1)OCCCO2)c1ccc2ccccc2c1O | active: 25.1 µM |  |
| CC(=O)NNC(=S)NC(=O)c1ccccc1 |  | inactive: 13.3% |
| NC(=O)c1nsc(C(=O)N(Cc2ccco2)C(C(=O)NCc2ccccc2)c2ccc(O)cc2)c1N (centres undefined) | inconclusive: 89.1 µM [inhibitor, partial curve, poor fit] |  |
| COC(=O)C(C)Sc1n[nH]c(=S)s1 (centres undefined) | inconclusive: 22.4 µM [inhibitor, full curve, poor fit] |  |
| CCc1cc2ccc(C)cc2nc1SCC(=O)N1CCN(C(=O)c2ccco2)CC1 | inconclusive: 39.8 µM [inhibitor, partial curve, poor fit] |  |
| COC(=O)c1cc(C(=O)c2c(C)cc3ccccn23)cc([N+](=O)[O-])c1 | inconclusive: 22.4 µM [inhibitor, full curve] |  |
| Oc1ccc(/C(Cc2ccc3ccccc3n2)=N\Nc2ccccc2)c(O)c1 | active: 70.8 µM |  |
| O=[N+]([O-])c1cc(Cl)cc(/C=N/NC(=S)Nc2ccc(S(=O)(=O)N3CCOCC3)cc2)c1O | active: 22.4 µM |  |
| COc1ccc([C@H]2CC(=O)C=C(c3ccc(F)cc3OCc3ccccc3)C2)cc1OC |  | inactive: 5.9% |
| COc1ccc(-c2nc3sc(CCNC(=O)c4ccco4)c(C)n3n2)cc1 | inconclusive: 89.1 µM [inhibitor, partial curve, poor fit] |  |
| CCC(C)Nc1nc(N)c([N+](=O)[O-])c(NCc2ccccc2)n1 (centres undefined) | inconclusive: 39.8 µM [inhibitor, single point] |  |
| Clc1ccc(-c2nn3c(C4COc5ccccc5O4)nnc3s2)cc1 (centres undefined) | inconclusive: 14.1 µM [inhibitor, partial curve, poor fit] |  |
| CCN1CCN(c2ccc([N+](=O)[O-])c(Sc3nc4ccccc4[nH]3)c2)CC1 | inconclusive: 79.4 µM [inhibitor, partial curve] |  |
| CC1CCN(C(=O)c2[nH]cnc2C(=O)N2CCN(C(=O)OC(C)(C)C)CC2)CC1 |  | inactive: 27.6% |
| COc1ccc(C2=C(N3CCN(c4cccc(C)c4C)CC3)c3ccccc3C2=O)cc1 | inconclusive: 5.01 µM [inhibitor, full curve, poor fit] |  |

| Structure (SMILES) | Potency | activity change, negative = inhibition |
| --- | --- | --- |
| O=[N+]([O-])c1ccc2c(c1)N([O-])C1(CCCCC1)[N+]2=O | inconclusive: 50.1 µM [inhibitor, partial curve] |  |
| CCOC(=O)c1c(-c2ccc(Cl)cc2)csc1NC(=O)CNCc1ccco1 | inconclusive: 14.1 µM [inhibitor, full curve, poor fit] |  |
| COC(=O)c1cc2c(n1S(=O)(=O)c1ccc(C)cc1)C(=O)C(=O)c1[nH]cc(C(=O)OCc3ccccc3)c1-2 | inconclusive: 31.6 µM [inhibitor, partial curve] |  |
| CN(C)c1ncc(CN2CCC(C(=O)Nc3ccc(-n4cccn4)cc3)CC2)s1 |  | inactive: 13.5% |
| COc1ccc(N2CCN(Cc3nc(Cc4cccc(F)c4)no3)C(C)C2)cc1 (centres undefined) | inconclusive: 39.8 µM [inhibitor, partial curve] |  |
| Oc1ccc(Cl)cc1-c1cc(-c2ccco2)[nH]n1 | active: 7.94 µM |  |
| O=C(CBr)Nc1c2c(nn1-c1ccccc1)CSC2 |  | inactive: 33.6% [at 57 µM] |
| CN(C)CCCNc1cc(N2CCN(C3CCCCC3)CC2)c2noc3c2c1C(=O)c1ccccc1-3 | inconclusive: 20 µM [inhibitor, full curve] |  |
| Cc1ccccc1OCCSc1nc2ccc(NC(=O)c3cccc(F)c3)cc2s1 |  | inactive: 78.5% |
| Cc1ccc(NC(=O)CN2C(=O)c3cccnc3Oc3ccc(Cl)cc32)cc1 |  | inactive: 27.8% |
| O=[N+]([O-])c1ccccc1NC1CCN(Cc2ccccc2)CC1 | inconclusive: 25.1 µM [inhibitor, full curve] |  |
| COc1ccccc1NC(=O)N1CCN(C)CC1 |  | inactive: -28.8% |
| Clc1ccccc1CN1CCSCC1 | inconclusive: 20 µM [inhibitor, full curve, poor fit] |  |
| CC1CCCCN1C(=O)CCNS(=O)(=O)c1ccc2c(c1)c(=O)n(C)c(=O)n2C (centres undefined) |  | inactive: 45.2% |
| CCOc1cc(CN2CCN(C(=O)CC(C)C)CC2)ccc1OC | inconclusive: 20 µM [inhibitor, full curve] |  |
| CC(=O)Nc1sc(N/N=C/c2ccc(C)cc2)nc1-c1ccc(C)cc1 | inconclusive: 22.4 µM [inhibitor, full curve] |  |
| CCCN(CCC)c1ccc(C2N=C(N)Nc3nc4ccccc4n32)cc1 (centres undefined) | inconclusive: 44.7 µM [inhibitor, partial curve, poor fit] |  |
| O=C(N/C(=C/c1cccc(Br)c1)c1nc(=S)[nH][nH]1)c1ccccc1 | inconclusive: 39.8 µM [inhibitor, partial curve] |  |
| COc1ccc(Br)cc1CNC(=O)c1cnc2sc(N3CCC(C)CC3)nn2c1=O |  | inactive: 8.4% |
| O=C(NCCN1CCOCC1)C1CCN(Cc2ccccc2O)CC1 | inconclusive: 17.8 µM [inhibitor, full curve, poor fit] |  |
| C/C=C\C=C/C(=O)Nc1cccc(C2=NOC3(C2)C[C@H](C(N)=O)N(C(=O)c2ccc(OC)cc2)C3)c1 (some centres undefined) | inconclusive: 50.1 µM [inhibitor, partial curve, poor fit] |  |
| Cc1cccc(N2CCN(Cc3nnc(-c4cccc(Br)c4)o3)CC2)c1C |  | inactive: 27.9% |
| O=C(NCc1cccc(Cl)c1)C1CCCN(c2nn3cc(-c4ccc(F)cc4)nc3s2)C1 (centres undefined) | inconclusive: 70.8 µM [inhibitor, partial curve] |  |
